# Results from the supplement of paper PMC12217912.
# Some of the results follow. The full chains were built here from the parent and the listed change. Values near 0.05 are background.
# B1: TEV protease; numbered along this chain (parent)
# chain: MGESLFKGPRDYNPISSSICHLTNESDGHTTSLYGIGFGPFIITNKHLFRRNNGTLVVQSLHGVFKVKDTTTLQQHLVDGRDMIIIRMPKDFPPFPQKLKFREPQREERICLVTTNFQTKSMSSMVSDTSCTFPSGDGIFWKHWIQTKDGQCGSPLVSTRDGFIVGIHSASNFTNTNNYFTSVPKNFMELLTNQEAQQWVSGWRLNADSVLWGGHKVFMVKPEEPFQPVKEATQL
# Variants of: B1
# Experiment: raw area under fraction-flipped curve 0-4 h after induction (AUC4h, not background-subtracted), DNA-recorder readout of cleavage of the substrate (dimensionless); higher = more cleavage of the substrate by the protease variant
# Conditions: temperature: 34 °C; time window: 0-4 h after rhamnose induction
# Procedure: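 In vivo DNA recorder in E. coli TOP10(DE3) ΔrhaA at 34 °C. Each TEVp single-site mutant (parent TEVp 0) is paired with a single-site variant of the 7-mer TEVs (canonical ENLYFQ|S). The substrate sits between flexible linkers in a Bxb1-sfGFP-TEVs-SsrA fusion, so cleavage stabilises Bxb1 and speeds flipping of a recombination array, read by NGS. The value is the raw area under the fraction-flipped curve over 0-4 h after rhamnose induction (AUC4h), with ≥20 reads per time point. It is not background-subtracted; inactive controls average about 0.047.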
# 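Also: Bxb1 expression induced with 0.2% (w/v) L-rhamnose at OD600 near 0.5, cultures sampled hourly, flipped fraction per protease–substrate barcode pair counted by paired-end Illumina sequencing.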
Variant,area with substrate ENLYFQA,area with substrate ENLYFQC,area with substrate ENLYFQM,area with substrate ENLYFQN,area with substrate ENLYFQR,area with substrate ENLYFQS,area with substrate ENLYFQT,area with substrate ENLYFQV,area with substrate ENLYFQW,area with substrate ENLYFQY,area with substrate ENLYFQD,area with substrate ENLYFQE,area with substrate ENLYFQH,area with substrate ENLYFQI,area with substrate ENLYFQK,area with substrate ENLYFQL,area with substrate ENLYFQP,area with substrate ENLYFQF,area with substrate ENLYFQG,area with substrate ENLYFQQ
K148S,0.0723,0.13,0.0804,0.0703,0.0691,0.0921,0.0708,0.0541,0.0519,0.079,–,–,–,–,–,–,–,–,–,–
K148Y,0.113,0.167,0.0965,0.0752,–,0.107,–,0.042,–,0.0817,0.0714,0.0705,0.0861,0.0663,0.0496,0.0694,0.0659,–,–,–
K148D,0.0851,0.0602,0.0661,–,0.0598,0.0774,0.0415,–,0.0587,0.0668,0.0865,–,–,0.0585,0.0762,–,–,0.0553,–,–
F140D,0.0549,0.065,0.0494,–,0.0537,0.0595,–,0.0752,0.0443,–,0.0667,0.071,–,0.0508,0.0729,0.062,0.0681,0.0574,0.0328,0.0629
N175V,0.0576,0.0711,0.0674,0.0555,–,0.0663,0.0563,0.0542,–,0.0576,–,0.0549,0.0562,0.0544,–,–,0.0585,0.0743,0.0898,–
S182T,0.0854,–,–,–,0.0528,0.101,0.0645,–,–,–,–,–,–,0.0472,0.0842,–,–,–,0.101,–
S182Q,0.0782,0.108,0.111,0.0567,0.0584,0.0954,0.0537,0.0565,0.0595,–,0.0606,–,0.0984,–,0.0472,0.0746,–,0.0611,0.0857,–
S182G,0.0924,0.141,–,–,0.0303,0.111,0.0716,–,0.0543,0.0865,0.102,–,0.0965,0.0475,–,0.059,–,–,–,–
V157M,0.0912,–,0.0803,0.0772,0.0452,0.091,0.0857,0.0698,0.0574,–,–,–,0.0807,0.0588,0.0822,0.0539,–,–,0.0652,–
E189H,0.0324,0.128,0.0584,–,0.0311,0.103,0.0781,–,0.0645,–,0.0596,0.0725,–,0.0576,0.0759,0.0624,0.0455,–,–,–
T181S,0.116,0.14,0.0695,–,0.0652,0.104,0.0641,–,–,–,–,–,0.0968,0.0543,–,–,–,–,–,–
G153E,0.0528,–,–,–,0.0487,0.0549,0.045,–,–,–,–,–,–,–,–,–,0.0438,–,–,–
I139H,0.0836,0.133,–,0.0663,0.0703,0.0941,–,0.0561,–,–,–,–,0.0721,0.0497,–,–,–,–,–,0.0796
Q151R,0.121,0.0835,–,0.0639,0.0594,0.0982,0.0529,0.0685,0.0644,0.0554,0.045,–,–,0.0584,0.0599,0.0603,0.0736,0.0561,0.0884,–
F180R,0.0651,0.0584,0.0499,0.049,0.0507,0.0529,0.046,0.0448,0.063,0.0363,–,–,–,–,0.0511,0.0434,0.057,–,0.0413,–
